# PubChem BioAssay (Tox21)
# Values joined by “and” are separate entries in the source; they are usually repeats but may differ in a detail not shown here. Equal entries are not always repeated. Inconclusive results, whose numbers are uncertain, are shown with a selection of clear calls. For part of these data: A potency beside an inconclusive call is a rough fit, not a confirmed value. Some compounds were tested as several samples or in several runs, with calls that do not always agree. Active and inactive are the calls of the source. Unless noted, the call rests on the fitted dose curve; in most records, active means well fitted curve in the direction sought with a large enough effect in the repeat runs; inconclusive means weak or mixed curves; inactive means no such curve, though single readings can be large; an effect the other way counts as inactive or inconclusive.
# Key:
# [1] = Caspase-3/7 induction in CHO-K1 cells by small molecules, qHTS cell viability counter screen (AID 1346979); further: nearly all actives have a fitted effect of over 35% in size; further: potency means the concentration at half of the fitted maximal effect
# Outline: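 Cells (CHO-K1, wild type) are plated at 1,500 per well and incubated 5hr. Test compounds in DMSO are then pinned in, followed by 16hr at 37C and 5% CO2. Viability is read by CellTiter-Fluor fluorescence after 1hr.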
# [2] = Caspase-3/7 induction in HepG2 cells by small molecules, qHTS cell viability counter screen (AID 1346981); further: nearly all actives have a fitted effect of over 30% in size; further: potency means the concentration at half of the fitted maximal effect
# Outline: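 CellTiter-Fluor fluorescence measured viability in the same wells used for Caspase-Glo 3/7. HepG2 (wild type) at 2,000 cells/well were pre-incubated 5 hr, dosed, and given reagent at 16 hr, with 1 hr further at 37C.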
# [3] = target: Cytochrome P450 2D6 (Homo sapiens) (UniProt P10635); experiment: Cytochrome P450 Family 2 Subfamily D Member 6 (CYP2D6) small molecule antagonists: luciferase reporter qHTS assay (AID 1671196); further: nearly all actives have a fitted effect of over 50% in size; further: potency means the concentration at half of the fitted maximal effect
# Sequence of UniProt P10635 (P10635 whole entry, looked up): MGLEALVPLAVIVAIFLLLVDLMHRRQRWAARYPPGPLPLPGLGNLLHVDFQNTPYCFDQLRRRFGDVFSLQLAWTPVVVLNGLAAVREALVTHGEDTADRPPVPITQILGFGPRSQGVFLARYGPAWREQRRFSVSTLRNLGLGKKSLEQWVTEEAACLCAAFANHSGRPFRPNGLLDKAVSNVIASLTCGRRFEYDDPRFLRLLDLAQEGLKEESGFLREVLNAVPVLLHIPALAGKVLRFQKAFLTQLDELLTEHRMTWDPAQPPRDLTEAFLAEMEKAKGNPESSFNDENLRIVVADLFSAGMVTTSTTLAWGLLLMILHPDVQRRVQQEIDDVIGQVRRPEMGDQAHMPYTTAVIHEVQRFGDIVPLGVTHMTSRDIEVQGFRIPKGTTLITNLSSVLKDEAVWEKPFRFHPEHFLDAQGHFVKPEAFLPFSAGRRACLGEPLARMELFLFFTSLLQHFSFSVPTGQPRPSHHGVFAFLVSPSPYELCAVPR
# Outline: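 CYP2D6 activity was followed as luminescence from its luciferin product after a 1 h NADPH-driven reaction at room temperature. Enzyme-substrate mix and compound were pre-incubated for 10 min, and the signal was read 20 min after adding detection reagent.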
# [4] = target: Cytochrome P450 2C19 (Homo sapiens) (UniProt P33261); experiment: Cytochrome P450 Family 2 Subfamily C Member 19 (CYP2C19) small molecule antagonists: luciferase reporter qHTS assay (AID 1671197); further: nearly all actives have a fitted effect of over 65% in size; further: potency means the concentration at half of the fitted maximal effect
# Sequence of UniProt P33261 (P33261 whole entry, looked up): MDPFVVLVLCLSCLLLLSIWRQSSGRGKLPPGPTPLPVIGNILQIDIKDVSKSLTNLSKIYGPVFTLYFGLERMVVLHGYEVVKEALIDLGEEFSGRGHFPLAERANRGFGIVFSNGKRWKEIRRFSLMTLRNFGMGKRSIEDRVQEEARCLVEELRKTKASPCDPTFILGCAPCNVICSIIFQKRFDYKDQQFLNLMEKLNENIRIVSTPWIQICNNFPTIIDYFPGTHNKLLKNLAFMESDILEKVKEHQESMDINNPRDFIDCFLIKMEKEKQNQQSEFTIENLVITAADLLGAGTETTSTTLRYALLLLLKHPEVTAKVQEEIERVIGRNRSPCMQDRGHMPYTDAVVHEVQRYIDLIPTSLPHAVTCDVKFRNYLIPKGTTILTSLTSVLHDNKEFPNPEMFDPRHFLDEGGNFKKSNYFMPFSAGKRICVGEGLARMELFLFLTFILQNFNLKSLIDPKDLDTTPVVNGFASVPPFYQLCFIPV
# Outline: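 First, compounds are pinned into enzyme-substrate mix and held 10 min at room temperature. Second, NADPH regeneration solution is added and plates incubate 1 h at 37C. Third, detection reagent is added and luminescence read after 20 min.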
# [5] = Caspase-3/7 induction in CHO-K1 cells by small molecules, qHTS assay (AID 1346980); further: nearly all actives have a fitted effect of over 15% in size; further: potency means the concentration at half of the fitted maximal effect
# Outline: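 Wild-type CHO-K1 cells exposed to compounds for 17hr at 37 C, 5% CO2. Caspase-3/7 activity then measured by Caspase-Glo 3/7 luminescence after 30min at room temperature.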
# [6] = target: Nuclear receptor subfamily 1 group I member 2 (Homo sapiens) (UniProt O75469); experiment: Human pregnane X receptor (PXR) small molecule agonists, qHTS assay (AID 1346982); further: potency means the concentration at half of the fitted maximal effect; nearly all actives have a fitted effect of over 35% in size
# Sequence of UniProt O75469 (O75469 whole entry, looked up): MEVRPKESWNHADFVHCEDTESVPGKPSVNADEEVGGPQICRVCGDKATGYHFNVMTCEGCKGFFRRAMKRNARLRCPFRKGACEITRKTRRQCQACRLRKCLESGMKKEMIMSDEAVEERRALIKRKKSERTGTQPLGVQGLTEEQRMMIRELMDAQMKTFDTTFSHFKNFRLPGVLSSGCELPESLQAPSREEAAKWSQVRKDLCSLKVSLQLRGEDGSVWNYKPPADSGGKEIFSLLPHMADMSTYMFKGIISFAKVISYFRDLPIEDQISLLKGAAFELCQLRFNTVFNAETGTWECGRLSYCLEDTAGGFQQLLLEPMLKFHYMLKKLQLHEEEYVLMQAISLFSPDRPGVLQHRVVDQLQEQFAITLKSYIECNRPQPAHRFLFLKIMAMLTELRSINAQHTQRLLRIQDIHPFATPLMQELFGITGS
# Outline: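 Agonist mode: luminescence from ONE-Glo after 24 h compound exposure at 37C in HepG2 cells carrying hPXR-responsive CYP3A4 luciferase, plated in charcoal-stripped serum medium 5 h beforehand.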
# [7] = target: Nuclear receptor subfamily 1 group I member 2 (Rattus norvegicus) (UniProt Q9R1A7); experiment: Rat pregnane X receptor (rPXR) activation by small molecules, qHTS assay (AID 1346983); details: rPXR luciferase reporter cells, One-Glo luminescence, 24 h; max activation: stronger effect = higher value; further: potency means the concentration at half of the fitted maximal effect; nearly all actives have a fitted effect of over 20% in size
# Sequence of UniProt Q9R1A7 (Q9R1A7 whole entry, looked up): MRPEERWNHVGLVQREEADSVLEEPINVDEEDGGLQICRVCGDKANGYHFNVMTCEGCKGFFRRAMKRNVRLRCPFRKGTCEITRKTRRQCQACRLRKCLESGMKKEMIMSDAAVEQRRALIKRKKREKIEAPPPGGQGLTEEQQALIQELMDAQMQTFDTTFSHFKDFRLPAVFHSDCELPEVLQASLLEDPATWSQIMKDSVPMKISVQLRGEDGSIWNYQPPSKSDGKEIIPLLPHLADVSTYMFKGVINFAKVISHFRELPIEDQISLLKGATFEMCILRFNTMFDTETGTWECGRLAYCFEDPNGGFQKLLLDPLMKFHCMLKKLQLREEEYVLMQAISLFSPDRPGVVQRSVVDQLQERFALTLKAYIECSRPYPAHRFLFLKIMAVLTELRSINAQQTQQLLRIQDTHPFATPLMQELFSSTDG
# Outline: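 Cell-based rPXR activation assay: rPXR cells, 2,000 per well, rested 5hr at 37 C, then exposed to compounds in DMSO for 24 hr at 37 C. Luciferase activity read by One-Glo luminescence after 30 min at room temperature.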
# [8] = target: Nuclear receptor subfamily 1 group I member 2 (Homo sapiens) (UniProt O75469); experiment: CYP3A4 induction through human pregnane X receptor (PXR) by small molecules, qHTS assay (AID 1346984); further: potency means the concentration at half of the fitted maximal effect; nearly all actives have a fitted effect of over 40% in size
# Outline: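 Read-out is luminescence after One-Glo addition, following a 3 hr, 37C incubation with Luciferin-IPA CYP3A4 substrate (3uM final). Before that, compounds were on DPX-2 cells (HepG2 co-transfected with PXR element plus CYP3A4-promoter luciferase) for 24 hr at 37C.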
# [9] = target: Nuclear receptor subfamily 1 group I member 2 (Homo sapiens) (UniProt O75469); experiment: Human pregnane X receptor (PXR) activation by small molecules, qHTS assay (AID 1346985); further: potency means the concentration at half of the fitted maximal effect; nearly all actives have a fitted effect of over 40% in size
# Outline: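 DPX-2 cells (HepG2 co-transfected with a PXR response element and a CYP3A4-promoter luciferase construct) were seeded at 2,000 per well, rested 5 hr at 37C, then exposed to DMSO-dissolved compounds for 24 hr. Activation was read as luciferase luminescence.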
# [10] = target: Acetylcholinesterase (Homo sapiens) (UniProt P22303); experiment: Acetylcholinesterase (AChE) small molecule antagonists: enzyme-based qHTS assay with human liver microsomes (AID 1347399; calls by dose curve; further: potency means the concentration at half of the fitted maximal effect; nearly all actives have a fitted effect of over 60% in size); details: Potency: qHTS inhibition
# Sequence of UniProt P22303 (P22303 whole entry, looked up): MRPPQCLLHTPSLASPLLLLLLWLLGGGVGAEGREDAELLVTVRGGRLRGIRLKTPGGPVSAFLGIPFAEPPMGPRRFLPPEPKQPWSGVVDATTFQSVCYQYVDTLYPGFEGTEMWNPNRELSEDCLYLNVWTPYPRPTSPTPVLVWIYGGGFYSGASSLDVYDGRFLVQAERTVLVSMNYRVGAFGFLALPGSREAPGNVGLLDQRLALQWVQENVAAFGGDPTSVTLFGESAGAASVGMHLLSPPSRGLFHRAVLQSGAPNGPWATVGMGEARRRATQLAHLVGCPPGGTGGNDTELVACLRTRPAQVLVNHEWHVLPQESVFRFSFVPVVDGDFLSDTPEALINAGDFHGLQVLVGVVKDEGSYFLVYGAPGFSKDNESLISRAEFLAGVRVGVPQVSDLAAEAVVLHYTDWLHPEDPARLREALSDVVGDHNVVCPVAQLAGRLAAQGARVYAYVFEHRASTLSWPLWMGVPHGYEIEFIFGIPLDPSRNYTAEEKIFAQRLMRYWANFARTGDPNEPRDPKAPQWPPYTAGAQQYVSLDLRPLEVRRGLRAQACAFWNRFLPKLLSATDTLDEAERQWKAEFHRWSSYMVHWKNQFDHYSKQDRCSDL
# Outline: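 Recombinant human AChE (50 mU/mL in the enzyme mix) and human liver microsomes (0.25 mg/mL final) were preincubated with compound and NADPH (0.25 mg/mL final) for 30 min at 37 C. Acetylthiocholine/DTNB was then added; thiocholine was read colorimetrically after 10 min at room temperature.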
# [11] = target: Acetylcholinesterase (Homo sapiens) (UniProt P22303); experiment: Acetylcholinesterase (AChE) small molecule antagonists: fluorescence cell-based qHTS assay (AID 1347398; calls by dose curve; further: nearly all actives have a fitted effect of over 50% in size); details: Potency: AChE activity
# Outline: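 Cells (SH-SY5Y) attached overnight, were dosed with compound or DMSO vehicle for 30 min at 37 C, and then incubated 40 min at room temperature with acetylthiocholine and Thiolite Green; green fluorescence indexed AChE activity.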
# Tags describe the fitted curve by direction and shape.
compound,measurement,setting,value
Cc1ccccc1C(=O)Nc1cccc(OC(C)C)c1,Potency,[1],"inconclusive: 68.6 µM [cytotoxic, single point]"
C=CC(=O)NCNC(=O)C=C,Potency,[1],"inconclusive: 68.4 µM [cytotoxic, single point]"
CC(C)C1(C)N=C(c2nc3ccccc3cc2C(=O)O)NC1=O (stereo not given),Potency,[1],"inconclusive: 61.6 µM [rising, partial curve, poor fit]"
same,Potency,[2],inactive
same,Potency,[3],"inconclusive: 40.2 µM [inhibitor, partial curve]"
same,Potency,[4],"inactive and inconclusive: 89.4 µM [inhibitor, single point]"
ClC1=C(Cl)[C@]2(Cl)[C@H]3[C@H]([C@H]4C=C[C@H]3C4)[C@@]1(Cl)C2(Cl)Cl,Potency,[1],"inconclusive: 77 µM [cytotoxic, single point]"
same,Potency,[5],inactive
same,Potency,[6],"inconclusive: 24.3 µM [activator, partial curve, poor fit]"
same,Potency,[3],inactive
C/C=C/c1ccc2c(c1)OCO2,Potency,[1],"inconclusive: 69.9 µM [cytotoxic, single point]"
CCCC[N+]1(C)CCCC1,Potency,[1],inactive
same,Potency,[5],inactive
same,Potency,[6],"inconclusive: 69.2 µM [activator, single point]"
same,Potency,[3],"inconclusive: 71.4 µM [inhibitor, partial curve, poor fit]"
same,Potency,[4],"inconclusive: 89.9 µM [inhibitor, single point]"
C[C@@H]1CC[C@H]2[C@@H](C)C(=O)O[C@@H]3O[C@@]4(C)CC[C@@H]1[C@]32OO4,Potency,[1],active: 4.22 µM
C[C@]12CC[C@H]3[C@@H](CCC4=CC(=O)CC[C@@H]43)[C@@H]1CC[C@@H]2OC(=O)CCc1ccco1,Potency,[1],"inconclusive: 33.5 µM [cytotoxic, single point]"
same,Potency,[5],"inconclusive: 33.5 µM [activator, single point]"
same,Potency,[6],"inconclusive: 33.5 µM [activator, single point]"
N#Cc1cc(Br)c(O)c(Br)c1,Potency,[1],"inconclusive: 76.9 µM [cytotoxic, single point] and inconclusive: 52.5 µM [cytotoxic, single point]"
same,Potency,[2],"inconclusive: 76.9 µM [cytotoxic, partial curve, poor fit]"
same,Potency,[6],active: 68.5 µM
N#CC(O)c1ccccc1 (stereo not given),Potency,[1],"inconclusive: 68.5 µM [cytotoxic, single point]"
same,Potency,[2],"inconclusive: 76.8 µM [rising, partial curve, poor fit]"
same,Potency,[6],"inconclusive: 34.3 µM [activator, partial curve]"
same,Potency,[4],inactive
Cc1cnc2c(C(=O)O)c(Cl)ccc2c1,Potency,[1],inactive
CC(C)CP(=S)(S)CC(C)C,Potency,[1],active: 48.6 µM
same,Potency,[5],"inconclusive: 24.3 µM [activator, partial curve]"
same,Potency,[2],"inconclusive: 54.5 µM [rising, partial curve, poor fit]"
same,Potency,[3],"inconclusive: 89.4 µM [inhibitor, partial curve, poor fit]"
CON(C)C(=O)Nc1ccc(Br)c(Cl)c1,Potency,[1],"inconclusive: 68.6 µM [cytotoxic, single point]"
same,Potency,[6],active: 27.3 µM
CCOC(=O)C1(c2ccccc2)CCN(CCC(C#N)(c2ccccc2)c2ccccc2)CC1,Potency,[7],"inconclusive: 10 µM [activator, partial curve]"
same,Potency,[8],active: 1.41 µM
same,Potency,[9],active: 1.12 µM
CCC(COC(=O)c1cc(OC)c(OC)c(OC)c1)(c1ccccc1)N(C)C (stereo not given),Potency,[8],active: 15.8 µM
COP(=S)(Oc1cc(Cl)c(Br)cc1Cl)c1ccccc1 (stereo not given),Potency,[10],active: 8.94 µM
NC(=O)C(Cl)Cl,Potency,[2],inactive
same,Potency,[11],inactive
CC1OC(C)OC(C)O1 (stereo not given),Potency,[1],"inconclusive: 33.5 µM [rising, single point]"
same,Potency,[4],inactive
S=C=NCc1ccccc1,Potency,[2],"inconclusive: 61.8 µM [rising, partial curve, poor fit]"
same,Potency,[3],active: 28.6 µM
O=C1NCN(c2ccccc2)C12CCN(CC1COc3ccccc3O1)CC2 (stereo not given),Potency,[1],"inconclusive: 33.5 µM [cytotoxic, partial curve, poor fit]"
same,Potency,[4],active: 4.36 µM
O=c1[nH]c2cc(Cl)ccc2n1C1CCNCC1,Potency,[2],inactive
CCCC(=O)Cl,Potency,[2],inactive
ClCc1ccccn1,Potency,[5],inactive
same,Potency,[3],"inconclusive: 22.4 µM [inhibitor, full curve]"
CCCCC(CC)COC(=O)OOC(C)(C)C (stereo not given),Potency,[2],inactive
N#Cc1cc(I)c(O)c(I)c1,Potency,[2],"inconclusive: 77 µM [cytotoxic, single point]"
same,Potency,[6],active: 54.5 µM
same,Potency,[4],inconclusive: 89.4 µM [inhibitor]
CCCn1cc[n+](C)c1,Potency,[5],inactive
CC(=O)[O-].CC(=O)[O-].O.O.[Cd+2],Potency,[2],active: 67.6 µM
c1ccc(-c2cccc(-c3ccccc3)c2)cc1,Potency,[2],"inconclusive: 38.6 µM [rising, partial curve, poor fit]"
same,Potency,[6],active: 61.8 µM and active: 27.3 µM
same,Potency,[3],"inconclusive: 50.2 µM [inhibitor, partial curve, poor fit]"
